From patent US20230054458A1 (JIANGSU HENGRUI MEDICINE, published 2023)

Target: human claudin18.2 (Claudin 18.2, Genbank NP_001002026) (human)
Experiment: cell-based or functional assay

B1: humanized antibody h1902-5 (antibody, human IgG1, kappa)
heavy: EVQLVQSGAEVKKPGASVKVSCKASGYTFTSYWMHWVRQAPGQRLEWMGMIHPNSGSTNYNEKFKGRVTITRDTSASTAYMELSSLRSEDTAVYYCARLKTGNSFDYWGQGTTVTVSS[not shown - human IgG1 constant region]
light: DIVLTQSPDSLAVSLGERATINCKSSQSLLNSGNQKNYLTWYQQKPGQPPKLLIYWASTRESGVPDRFSGSGSGTDFTLTISSLQAEDVAVYYCQNAYTYPFTFGQGTKLEIKRTVAAPSVFIFPPSDEQLKSGTASVVCLLNNFYPREAKVQWKVDNALQSGNSQESVTEQDSKDSTYSLSSTLTLSKADYEKHKVYACEVTHQGLSSPVTKSFNRGEC
Question: B1 was tested. Which “ADCC effect IC50, FcrR3A-V158-NFAT-RE-Jurkat reporter luminescence, NUGC4 cells with high claudin18.2 expression” value did it give?
Answer: 0.0322 µg/mL

Question: And the “ADCC effect IC50, FcrR3A-V158-NFAT-RE-Jurkat reporter luminescence, NUGC4 cells with low claudin18.2 expression” value?
Answer: 0.0355 µg/mL

Question: And the “ADCC effect IC50, FcrR3A-V158-NFAT-RE-Jurkat reporter luminescence, NUGC4 cells with moderate claudin18.2 expression” value?
Answer: 0.03 µg/mL
